This is one part of the list. The full chains were built here from the parent and the listed change. Values near 0.05 are background.
B1: TEV protease; numbered along this chain (parent)
chain: MGESLFKGPRDYNPISSSICHLTNESDGHTTSLYGIGFGPFIITNKHLFRRNNGTLVVQSLHGVFKVKDTTTLQQHLVDGRDMIIIRMPKDFPPFPQKLKFREPQREERICLVTTNFQTKSMSSMVSDTSCTFPSGDGIFWKHWIQTKDGQCGSPLVSTRDGFIVGIHSASNFTNTNNYFTSVPKNFMELLTNQEAQQWVSGWRLNADSVLWGGHKVFMVKPEEPFQPVKEATQL

Variants of: B1
Test: raw area under fraction-flipped curve 0-4 h after induction (AUC4h, not background-subtracted), DNA-recorder readout of cleavage of the substrate (dimensionless); higher = more cleavage of the substrate by the protease variant
Conditions: temperature: 34 °C; time window: 0-4 h after rhamnose induction
Description: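 In vivo DNA recorder in E. coli TOP10(DE3) ΔrhaA at 34 °C. Each TEVp single-site mutant (parent TEVp 0) is paired with a single-site variant of the 7-mer TEVs (canonical ENLYFQ|S). The substrate sits between flexible linkers in a Bxb1-sfGFP-TEVs-SsrA fusion, so cleavage stabilises Bxb1 and speeds flipping of a recombination array, read by NGS. The value is the raw area under the fraction-flipped curve over 0-4 h after rhamnose induction (AUC4h), with ≥20 reads per time point. It is not background-subtracted; inactive controls average about 0.047.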
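Also: Bxb1 expression induced with 0.2% (w/v) L-rhamnose at OD600 near 0.5, cultures sampled hourly, flipped fraction per protease–substrate barcode pair counted by paired-end Illumina sequencing.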

Variant | area with substrate ENAYFQS | area with substrate ENDYFQS | area with substrate ENEYFQS | area with substrate ENFYFQS | area with substrate ENGYFQS | area with substrate ENHYFQS | area with substrate ENIYFQS | area with substrate ENKYFQS | area with substrate ENMYFQS | area with substrate ENNYFQS | area with substrate ENPYFQS | area with substrate ENQYFQS | area with substrate ENRYFQS | area with substrate ENSYFQS | area with substrate ENTYFQS | area with substrate ENVYFQS | area with substrate ENCYFQS | area with substrate ENYYFQS | area with substrate ENWYFQS
MGESLFKGPRDYNPISSSICHLTNESDGHTTSLYGIGFGPFIITNKHLFRRNNGTLVVQSLHGVFKVKDTTTLQQHLVDGRDMIIIRMPKDFPPFPQKLKFREPQREERICLVTTNFQTKSMSSMVSDTSCTFHSGDGIFWKHWIQTKDGQCGSPLVSTRDGFIVGIHSASNFTNTNNYFTSVPKNFMELLTNQEAQQWVSGWRLNADSVLWGGHKVFMVKPEEPFQPVKEATQL [P134H] | 0.0623 | 0.0542 | 0.0664 | 0.0605 | 0.0542 | 0.0667 | 0.0825 | 0.0626 | 0.0658 | 0.0595 | 0.0472 | 0.055 | 0.0381 | 0.0531 | 0.0491 | 0.0699 | – | – | –
MGESLFKGPRDYNPISSSICHLTNESDGHTTSLYGIGFGPFIITNKHLFRRNNGTLVVQSLHGVFKVKDTTTLQQHLVDGRDMIIIRMPKDFPPFPQKLKFREPQREERICLVTTNFQTKSMSSMVSLTSCTFPSGDGIFWKHWIQTKDGQCGSPLVSTRDGFIVGIHSASNFTNTNNYFTSVPKNFMELLTNQEAQQWVSGWRLNADSVLWGGHKVFMVKPEEPFQPVKEATQL [D128L] | 0.0612 | 0.0586 | 0.0429 | – | – | – | 0.151 | – | 0.105 | – | 0.0585 | 0.0648 | – | – | 0.0628 | 0.0903 | 0.0825 | – | –
MGESLFKGPRDYNPISSSICHLTNESDGHTTSLYGIGFGPFIITNKHLFRRNNGTLVVQSLHGVFKVKDTTTLQQHLVDGRDMIIIRMPKDFPPFPQKLKFREPQREERICLVTTNFQTKSMSSMVSMTSCTFPSGDGIFWKHWIQTKDGQCGSPLVSTRDGFIVGIHSASNFTNTNNYFTSVPKNFMELLTNQEAQQWVSGWRLNADSVLWGGHKVFMVKPEEPFQPVKEATQL [D128M] | 0.0741 | 0.0617 | 0.0639 | 0.0686 | 0.0606 | 0.0598 | – | 0.11 | 0.117 | – | – | 0.0579 | 0.0528 | 0.0563 | – | – | 0.0665 | 0.0477 | –
MGESLFKGPRDYNPISSSICHLTNESDGHTTSLYGIGFGPFIITNKHLFRRNNGTLVVQSLHGVFKVKDTTTLQQHLVDGRDMIIIRMPKDFPPFPQKLKFREPQREERICLVTTNFQTKSMSSMVSNTSCTFPSGDGIFWKHWIQTKDGQCGSPLVSTRDGFIVGIHSASNFTNTNNYFTSVPKNFMELLTNQEAQQWVSGWRLNADSVLWGGHKVFMVKPEEPFQPVKEATQL [D128N] | 0.0624 | 0.0225 | 0.0659 | 0.0652 | – | – | 0.11 | 0.0595 | 0.11 | 0.0522 | 0.0558 | 0.0534 | 0.0692 | – | 0.0617 | – | 0.0835 | – | –
MGESLFKGPRDYNPISSSICHLTNESDGHTTSLYGIGFGPFIITNKHLFRRNNGTLVVQSLHGVFKVKDTTTLQQHLVDGRDMIIIRMPKDFPPFPQKLKFREPQREERICLVTTNFQTKSMSSMVSITSCTFPSGDGIFWKHWIQTKDGQCGSPLVSTRDGFIVGIHSASNFTNTNNYFTSVPKNFMELLTNQEAQQWVSGWRLNADSVLWGGHKVFMVKPEEPFQPVKEATQL [D128I] | 0.0628 | 0.0761 | 0.0594 | – | 0.0707 | – | – | – | – | – | – | – | 0.0568 | 0.0563 | 0.0668 | 0.08 | 0.0608 | – | –
MGESLFKGPRDYNPISSSICHLTNESDGHTTSLYGIGFGPFIITNKHLFRRNNGTLVVQSLHGVFKVKDTTTLQQHLVDGRDMIIIRMPKDFPPFPQKLKFREPQREERICLVTTNFQTKSMSSMVSWTSCTFPSGDGIFWKHWIQTKDGQCGSPLVSTRDGFIVGIHSASNFTNTNNYFTSVPKNFMELLTNQEAQQWVSGWRLNADSVLWGGHKVFMVKPEEPFQPVKEATQL [D128W] | 0.0787 | 0.0748 | 0.0968 | 0.0648 | 0.0521 | – | 0.1 | – | 0.106 | 0.0838 | 0.0534 | 0.0587 | – | 0.0535 | – | – | 0.0633 | – | 0.0648
MGESLFKGPRDYNPISSSICHLTNESDGHTTSLYGIGFGPFIITNKHLFRRNNGTLVVQSLHGVFKVKDTTTLQQHLVDGRDMIIIRMPKDFPPFPQKLKFREPQREERICLVTTNFQTKSMSSMVSFTSCTFPSGDGIFWKHWIQTKDGQCGSPLVSTRDGFIVGIHSASNFTNTNNYFTSVPKNFMELLTNQEAQQWVSGWRLNADSVLWGGHKVFMVKPEEPFQPVKEATQL [D128F] | 0.0593 | 0.067 | 0.0822 | 0.103 | 0.0656 | 0.0615 | – | 0.0516 | 0.119 | – | – | 0.0581 | – | – | 0.0578 | 0.0942 | – | – | 0.045
MGESLFKGPRDYNPISSSICHLTNESDGHTTSLYGIGFGPFIITNKHLFRRNNGTLVVQSLHGVFKVKDTTTLQQHLVDGRDMIIIRMPKDFPPFPQKLKFREPQREERICLVTTNFQTKSMSSMVSATSCTFPSGDGIFWKHWIQTKDGQCGSPLVSTRDGFIVGIHSASNFTNTNNYFTSVPKNFMELLTNQEAQQWVSGWRLNADSVLWGGHKVFMVKPEEPFQPVKEATQL [D128A] | 0.0687 | 0.0702 | 0.0634 | 0.0667 | 0.0835 | 0.0936 | 0.137 | 0.0631 | – | 0.0428 | – | 0.0615 | 0.0539 | 0.0723 | 0.07 | 0.129 | 0.0627 | – | –
MGESLFKGPRDYNPISSSICHLTNESDGHTTSLYGIGFGPFIITNKHLFRRNNGTLVVQSLHGVFKVKDTTTLQQHLVDGRDMIIIRMPKDFPPFPQKLKFREPQREERICLVTTNFQTKSMSSMVSCTSCTFPSGDGIFWKHWIQTKDGQCGSPLVSTRDGFIVGIHSASNFTNTNNYFTSVPKNFMELLTNQEAQQWVSGWRLNADSVLWGGHKVFMVKPEEPFQPVKEATQL [D128C] | 0.0636 | – | 0.0595 | 0.0587 | 0.0662 | 0.064 | – | 0.0713 | 0.0755 | – | – | 0.0595 | – | 0.0479 | 0.0561 | 0.0836 | 0.055 | – | –
MGESLFKGPRDYNPISSSICHLTNESDGHTTSLYGIGFGPFIITNKHLFRRNNGTLVVQSLHGVFKVKDTTTLQQHLVDGRDMIIIRMPKDFPPFPQKLKFREPQREERICLVTTNFQTKSMSSMVSDTSCTFPSGDGIFWGHWIQTKDGQCGSPLVSTRDGFIVGIHSASNFTNTNNYFTSVPKNFMELLTNQEAQQWVSGWRLNADSVLWGGHKVFMVKPEEPFQPVKEATQL [K142G] | 0.063 | 0.0637 | 0.0675 | – | 0.0563 | 0.0517 | – | 0.0546 | 0.0623 | 0.056 | 0.0597 | 0.0647 | 0.0626 | 0.0575 | 0.0599 | 0.0804 | 0.0495 | – | 0.0957
